Over roughly 33,000 sequences, “E-score (-0.5 to 0.5)” has its median near -0.032; the highest 2% begin near 0.36. Some of the results follow.

The target in this assay is T1, Sko1 (UniProt Q02100).
T1 sequence: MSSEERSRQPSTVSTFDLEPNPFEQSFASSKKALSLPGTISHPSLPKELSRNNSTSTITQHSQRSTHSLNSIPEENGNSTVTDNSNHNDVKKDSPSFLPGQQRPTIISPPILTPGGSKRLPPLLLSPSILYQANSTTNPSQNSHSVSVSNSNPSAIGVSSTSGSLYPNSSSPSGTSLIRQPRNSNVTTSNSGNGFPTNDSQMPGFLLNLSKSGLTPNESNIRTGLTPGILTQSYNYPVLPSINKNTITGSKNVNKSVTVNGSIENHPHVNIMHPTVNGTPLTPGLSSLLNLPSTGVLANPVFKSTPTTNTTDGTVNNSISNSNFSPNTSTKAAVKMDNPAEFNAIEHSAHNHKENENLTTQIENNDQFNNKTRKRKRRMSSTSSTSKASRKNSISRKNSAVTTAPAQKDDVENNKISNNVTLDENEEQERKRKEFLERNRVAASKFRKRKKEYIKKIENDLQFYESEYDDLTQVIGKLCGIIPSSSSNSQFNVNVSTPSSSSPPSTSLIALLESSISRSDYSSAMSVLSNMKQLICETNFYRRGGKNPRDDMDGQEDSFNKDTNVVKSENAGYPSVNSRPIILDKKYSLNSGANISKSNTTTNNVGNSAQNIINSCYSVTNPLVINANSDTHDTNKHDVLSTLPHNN
Nature of the assay: PBM E-score (8-mer binding enrichment) (E-score (-0.5 to 0.5)); higher = stronger / more preferred TF binding; most listed sequences are background and not binding sites. Particulars: protein concentration: 200 nM; construct: GST-full length. As to the method:
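Universal 'all 10-mer' protein binding microarrays (Agilent AMADID 015681) probed with GST-tagged S. cerevisiae TFs (full-length or DBD) made by in vitro transcription/translation (PURExpress), about 100-200 nM. Bound TF was detected with fluorescent anti-GST. Each ungapped 8-mer (which stands for itself and its reverse complement) is scored by the PBM enrichment score (E-score), a modified Wilcoxon-Mann-Whitney statistic from -0.5 to +0.5, computed with the Universal PBM Analysis Suite. Scale: above 0.35 generally sequence-specific binding.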
For the sequence CACCATGC, the “PBM E-score” value was -0.219.
Consider AGCACAAA, for which the “PBM E-score” value was 0.0706.
To GAGTTTTA belongs 0.0454.
For the sequence CCCCTTAA, the “PBM E-score” value is -0.253.
On to TCTCGGCA, for which the “PBM E-score” value is -0.169.
On to ACACATAA, for which the “PBM E-score” value was 0.262.
Regarding GCACGCAC, the “PBM E-score” value is 0.0723.
Regarding TCACGCGA, the “PBM E-score” value came to 0.237.
Consider AACGGGAG, for which the “PBM E-score” value was -0.159.
For the sequence TAGACGGA, the “PBM E-score” value is -0.0233.
On to AAGCTGCT, for which the “PBM E-score” value was -0.161.
Regarding GCGGGACC, the “PBM E-score” value was -0.308.
As for GAGCTTTA, the “PBM E-score” value was determined as 0.0316.
On to CCTCGAGA, for which the “PBM E-score” value was -0.0559.
With ACCTCACT, the “PBM E-score” value was 0.135.
For the sequence ACACGTAG, the “PBM E-score” value is 0.433.
To CGGTAGGC belongs -0.241; to GTGGCTTA, -0.067.
For GAGGCTTA, the “PBM E-score” value was -0.208.
As to CGCAGTCC, the “PBM E-score” value was -0.0221.
Regarding CTTCCAAC, the “PBM E-score” value was -0.199.
To CGTAGCAA belongs 0.264; to AGTGTACA, 0.0231.
As to AGGGGAGA, the “PBM E-score” value was -0.372.
Take TTTTAAAA: the “PBM E-score” value came to 0.233.
On to TAGTACGA, for which the “PBM E-score” value turned out to be 0.22.
In the case of TATAGTAA, the “PBM E-score” value worked out at 0.121.
With CCCCCCTC, the “PBM E-score” value was -0.384.
As to AAGCGCAT, the “PBM E-score” value was -0.0546.
Turning to CGAGTCGC, the “PBM E-score” value was -0.243.
Regarding ACCAATTA, the “PBM E-score” value amounted to 0.205.
For GACAACAC, the “PBM E-score” value was 0.128.
TCCCGCAA: the “PBM E-score” value was -0.126.
On to CGTGACGA, for which the “PBM E-score” value was found to be 0.411.
Consider ACACTACA, for which the “PBM E-score” value came out at 0.167.
For the sequence ACGGAGGC, the “PBM E-score” value is -0.228.
Consider GGAGTTGA, for which the “PBM E-score” value is -0.104.
In the case of GATCACGC, the “PBM E-score” value came out at 0.23.
Turning to CTCCTAGC, the “PBM E-score” value is -0.353.
Consider ACGAATAG, for which the “PBM E-score” value was found to be 0.144.
On to CCAGTAGG, for which the “PBM E-score” value is -0.243.
Take TATTACCA: the “PBM E-score” value amounted to 0.227.
Regarding ACTCTCCG, the “PBM E-score” value was -0.127.
Turning to ACCCACTG, the “PBM E-score” value was -0.151.
With CAGTACCC, the “PBM E-score” value was -0.133.
With ACCTAAAA, the “PBM E-score” value worked out at 0.164.
With GGCGTTCA, the “PBM E-score” value was -0.169.
Regarding TATACAGA, the “PBM E-score” value was determined as 0.164.
Take CGCATACA: the “PBM E-score” value turned out to be 0.0477.
For the sequence GCGGTAGA, the “PBM E-score” value was -0.241.
To ACTCTTAT belongs 0.079; to CATCGCAC, -0.065; to TCAGGACA, 0.104.
On to CGCGTCTC, for which the “PBM E-score” value stood at 0.063.
To GACCGTTA belongs -0.144; to TGCTCACA, 0.106; to AGTGTTTC, 0.034.
To AGTTGAAC belongs 0.0418; to ATACTCGG, 0.102; to AAGAATAC, 0.147.
As to GACAATTA, the “PBM E-score” value came to 0.124.
As for ACGAGGCG, the “PBM E-score” value is 0.0199.
As to CCGAGGAG, the “PBM E-score” value was -0.276.
For the sequence CGGAGTAG, the “PBM E-score” value was -0.274.
In the case of AGATAGCT, the “PBM E-score” value is -0.153.
To ACTGTGTC belongs -0.0725; to AATTAGGG, -0.0351; to ACGAACAA, 0.218.
As for CGGGGACG, the “PBM E-score” value is -0.127.
To AGTGTAAC belongs -0.0269; to GCCACACA, -0.28.
Consider CACGCACA, for which the “PBM E-score” value is 0.222.
With GAAGAATA, the “PBM E-score” value was determined as 0.0308.
Take AGGGAGCC: the “PBM E-score” value is -0.337.
As to ACAATCAC, the “PBM E-score” value amounted to 0.0792.
For CAATGGTA, the “PBM E-score” value was determined as 0.0536.
Regarding CTGGCTAA, the “PBM E-score” value is -0.224.
Take GCAGGCGC: the “PBM E-score” value was -0.128.
GCGCACGC: the “PBM E-score” value was -0.121.
To ATTCGAAC belongs 0.105; to GACTCTGA, -0.104; to GTCGGGGA, -0.0244.
Regarding TGGATGAA, the “PBM E-score” value worked out at 0.0106.
To ACTTACGC belongs 0.302; to CGCCCCCG, -0.295.
To AAGGCCCC belongs -0.279.

The record behind these values is the supplement of paper PMC3334620.
